Assay results as given in the RNAGym collection of RNA variant scans (doi:10.1073/pnas.2313332121).
This sample is rich in variants without activity.

B1: TPR 5TU (parent)
chain: GGAUCUUCUCGAUCUAACAAAAAAGACAAAUCUGCCACAAAGCUUGAGAGCAUCUUCGGAUGCAGAGGCGGCAGCCUUCGGUGGCGCGAUAGCGCCAACGUUCUCAACUAUGACACGCAAAACGCGUGCUCCGUUGAAUGGAGUUUAUCAUG

Variants of: B1
Experiment: polymerase ribozyme fitness, log enrichment relative to wild type (log ratio); higher = more active; in vitro selection for triplet polymerase activity
Summary of the method: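 Libraries of mutants in each subunit of a heterodimeric triplet polymerase ribozyme were generated by PCR and transcribed. In triplicate, each went through one in vitro selection round: annealing with biotinylated primer, partner subunit and triplets; frozen incubation at −7 °C; gel excision of extended constructs; streptavidin-bead capture; RT-PCR. Fitness, taken from Illumina sequencing of input and output libraries, is the logarithm of a genotype's enrichment over wild-type enrichment, averaged across replicates with inverse-variance weights. The logarithm is base 2, and genotypes needed ≥10 input reads and ≥1 read per output to be kept.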

Row | Variant | polymerase ribozyme fitness (log ratio)
1 | U31A A64C G65U C69U G86A | ≤ -4.2
2 | C32G A39G A73G A110G | ≤ -4.2
3 | C32G C93A C103G C118A U127G | ≤ -4.2
4 | U31A C63G G67A A89G A91C C93U A147C | ≤ -4.2
5 | U31A A39U A52U U56A A115G A119U U144A U148G | ≤ -4.2
6 | C32G U44A C76A C85U C93A C103U A115U C125U | ≤ -4.2
7 | U31G A52C C87U C93G | ≤ -4.2
8 | U31G C43U C57U C93G A122C | ≤ -4.2
9 | U31G U53A A91G A122G | -3.62
10 | C32U A37G G59A A91C C108G | ≤ -4.2
11 | A30U U56G C85A A121G | ≤ -4.2
12 | U31G | 0.749
13 | U31A | 0.37
14 | C32A G50A G94U A107C G143A | ≤ -4.2
15 | A30U G68C G92A C114A A138G | ≤ -4.2
16 | C32G U56A U104A G126C U148A | ≤ -4.2
17 | C32A C85G C103G C114A | ≤ -4.2
18 | U31C U77A A89U G92A | ≤ -4.2
19 | U31C A37C A49C U56C C85U | ≤ -4.2
20 | C32G G50A C57A G74A U101G A119U A137G G140C | ≤ -4.2
21 | U31C C63U G67A G74U C95U C116U C118G C125G | ≤ -4.2

Row | Variant | polymerase ribozyme fitness (log ratio)
22 | C32A G42U U82C C95U U102G C108G G140U U146A | ≤ -4.2
23 | C32U A49C U82C C96A A98C G117U A142G | ≤ -4.2
24 | C32A A37C U44G G70A A113C | ≤ -4.2
25 | U31A C93G C95U C96A A113G | ≤ -4.2
26 | C32A G71C G92A A142G | ≤ -4.2
27 | U31G A49C A60G | ≤ -4.2
28 | U31G G59U A138U | ≤ -4.2
29 | U31G A73C U127C | ≤ -4.2
30 | C32G U55A U77G A91G C125A U139C A147U U148G U151A | ≤ -4.2
31 | C32G G34C A37C C54A U78G C87G C99U A110U C114G | ≤ -4.2
32 | U31G C79U U90G A106G C108A A137C | ≤ -4.2
33 | C32G G50A U61A G62C G71A A91U G94C A138C | ≤ -4.2
34 | U31C U44A G94C C96G U102G U151C | ≤ -4.2
35 | C32A G42C G62A C95A | ≤ -4.2
36 | U31G U53A U90G U139A | ≤ -4.2
37 | U31A G58U G81U C93A C108G U135A | ≤ -4.2
38 | C32G C87A A115C | ≤ -4.2
39 | A30U G50C C54G G70C A97U C149A | ≤ -4.2
40 | A30U G88C U90G U145A | ≤ -4.2
41 | A30U G58A C87U U90G U101A A110C G112A G126U | ≤ -4.2
42 | C32G C93G A107G | ≤ -4.2

Row | Variant | polymerase ribozyme fitness (log ratio)
43 | U31G G94U U104A G136A A147C | ≤ -4.2
44 | C32G U77A C93U C114U G124C | ≤ -4.2
45 | U31C C35U A41G C54U G86C | -2.75
46 | C32G C87A U111A A142U | ≤ -4.2
47 | C32A C85G | ≤ -4.2
48 | U31A C96U C99A | -1.23
49 | C32G G81A A147U C149U | ≤ -4.2
50 | U31C G50U U56A G59A G94U U101G C103A C116U C131A U148A | ≤ -4.2
51 | A30U G58U G94U | ≤ -4.2
52 | U31A A47G G65U G70C G86A A122U | ≤ -4.2
53 | C32A C36A A60C U139C | ≤ -4.2
54 | U31G A37U G58C C76U U111G | ≤ -4.2
55 | U31C U55A A97G | 1.27
56 | C32A U102G | ≤ -4.2
57 | U31A U44A A49C G58A C75G A107U | ≤ -4.2
58 | C32G G50U C51G C96A A106U | ≤ -4.2
59 | C32U C36A C87G G124A | ≤ -4.2
60 | C32A U56A C85U A113C | ≤ -4.2
61 | U31A C43A U53A G83A A97C A150G | ≤ -4.2
62 | A30U U151G | ≤ -4.2
63 | C32A A41C C54U G94A A115G G133A | ≤ -4.2

Row | Variant | polymerase ribozyme fitness (log ratio)
64 | C32U C38U C79G G84U C118U C149G | ≤ -4.2
65 | C32A A41C G83C G94A A110U U127G | ≤ -4.2
66 | U31G A37C U61A G126C U145C | ≤ -4.2
67 | U31G U44A A66G C99G C114U G124U C149A | ≤ -4.2
68 | C32G U55A C79A C116G C149A | ≤ -4.2
69 | C32U A66C U104A U109G | ≤ -4.2
70 | A30U U44A G46C C57A U90A A97U G140U | ≤ -4.2
71 | U31G U77C A91C C108U | ≤ -4.2
72 | C32G A39C A41C A52U G94C C116G | ≤ -4.2
73 | C32G A40G A73G A91C | ≤ -4.2
74 | U31G C35U A66G G68C G74U C76G G84A C93A | ≤ -4.2
75 | U31A C38U G48C U61A C79G C85U U102G C105G U144C | ≤ -4.2
76 | U31A G88U U127C | ≤ -4.2
77 | C32G C38G C85U A97C C132U | ≤ -4.2
78 | C32G U55A G92U C149U | ≤ -4.2
79 | A30U U44A C105U U148A | ≤ -4.2
80 | U31A G58C G74C U139C U146A | ≤ -4.2
81 | U31C C32A A40C G83A | ≤ -4.2
82 | C32A G65A G88A C118U A120C A142G U144C | ≤ -4.2
83 | A30U U61A C95G U101G U102G C105A C118G | ≤ -4.2
